These results are taken from the supplement of paper PMC9046079.

Counter-ions that a name gives are not always drawn. ± gives the standard deviation of the averaged measurements. The list shows a part of the results.
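Further: 2.5D pseudo-monolayer culture of ISC-enriched organoids partly embedded atop Matrigel, compound added on day 0 and again on day 3, per-plate LOESS correction before median fold change.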

The test system of the assay is murine small intestinal organoids (ENR+CD Paneth differentiation). The assay can be described thus: cellular ATP (CellTiter-Glo 3D) relative to plate median (log10 fold change); higher = more viable cells. The following applies: 10 µM; 6 d. In general terms: In ATP-based viability assays light output follows the ATP content of the culture.
In the case of `CC(NC(=O)C(O)c1cc(F)cc(F)c1)C(=O)NC1C(=O)N(C)c2ccccc2-c2ccccc21` (configuration not stated), the “cellular ATP (log10)” value was -0.259 ± 0.31.
As to `O=C(NCc1cccc(O)c1)Nc1nc(-c2ccncc2)cs1`, the “cellular ATP (log10)” value is -0.199 ± 0.37.
Under `COc1cc2nc(N3CCN(C(=O)C4COc5ccccc5O4)CC3)nc(N)c2cc1OC` (configuration not stated) [Doxazosin Mesylate] stands 0.0748 ± 0.11.
The result for `CC(C)Oc1ccc(-c2cnc3c(-c4ccnc5ccccc45)cnn3c2)cc1` reads -0.00118 ± 0.1.
Regarding `CCc1nc(N)nc(N)c1-c1ccc(Cl)cc1` [Pyrimethamine], the “cellular ATP (log10)” value was -0.487 ± 0.19.
The result for `CS(=O)(=O)N1CCN(Cc2cc3nc(-c4cccc5[nH]ncc45)nc(N4CCOCC4)c3s2)CC1` reads -1.22 ± 0.54; that for `Cc1ccc(S(=O)(=O)n2c(N)nc3ccccc32)cc1` [ML130 (Nodinitib-1)], 0.156 ± 0.086; that for `C=CC(=O)Nc1cccc(Nc2nc(Nc3ccc(OCCOC)cc3)ncc2F)c1`, -0.778 ± 0.26.
The result for `CC(C)C[C@H](NC(=O)[C@H](Cc1ccccc1)NC(=O)c1cnccn1)B(O)O` [Bortezomib (PS-341)] reads -1.36 ± 0.98; that for `CC(C)(C)c1cc(NC(=O)Nc2ccc(-c3cn4c(n3)sc3cc(OCCN5CCOCC5)ccc34)cc2)no1` [Quizartinib (AC220)], -0.301 ± 0.23.
Turning to `O=C(/C=C/n1cnc(-c2cc(C(F)(F)F)cc(C(F)(F)F)c2)n1)N1CC(F)(F)C1`, the “cellular ATP (log10)” value is -0.703 ± 0.069.
On to `Cn1cc(/C=C2\C(=O)Nc3cccnc32)c2ccccc21`, for which the “cellular ATP (log10)” value was -0.113 ± 0.15.
For `N#CC1(c2ccc(NC(=O)c3cccnc3NCc3ccncc3)cc2)CCCC1` [Apatinib], the “cellular ATP (log10)” value stood at 0.218 ± 0.16.
For `NC(=O)c1cccc(-c2cccc(OC(=O)NC3CCCCC3)c2)c1`, the “cellular ATP (log10)” value was -0.228 ± 0.32.
Regarding `COc1ccc(COc2ccc(Cc3cnc(N)nc3N)cc2OC)cc1`, the “cellular ATP (log10)” value was -0.0381 ± 0.23.
As for `Cc1ccc(S(=O)(=O)OCC(=O)Nc2ccc(C(=O)O)c(O)c2)cc1`, the “cellular ATP (log10)” value was -0.181 ± 0.25.
For the compound `CCN(c1cc(-c2ccc(CN3CCOCC3)cc2)cc(C(=O)NCc2c(C)cc(C)[nH]c2=O)c1C)C1CCOCC1`, the “cellular ATP (log10)” value is 0.336 ± 0.65.
The result for `NC(=O)Nc1cc(-c2cccc(F)c2)sc1C(=O)N[C@H]1CCCNC1` reads -1.36 ± 0.5; that for `COc1ccc(CNCc2cccc3ccccc23)cc1`, -0.0402 ± 0.12.
Turning to `CC(C)CCNC(=O)[C@H](CC(C)C)NC(=O)[C@H]1O[C@@H]1C(=O)O` [Loxistatin Acid (E-64C)], the “cellular ATP (log10)” value was found to be 0.094 ± 0.18.
As to `O=C(O)c1cccc(-c2noc(-c3ccccc3F)n2)c1` [Ataluren (PTC124)], the “cellular ATP (log10)” value turned out to be 0.00552 ± 0.2.
Turning to `CN(Cc1cnc2nc(N)nc(N)c2n1)c1ccc(C(=O)N[C@@H](CCC(=O)O)C(=O)O)cc1` [Methotrexate], the “cellular ATP (log10)” value was -0.642 ± 0.38.
`CN1C2CCCC1CC(NC(=O)c1nn(C)c3ccccc13)C2` (configuration not stated) [Granisetron HCl]: the “cellular ATP (log10)” value was -0.297 ± 0.17.
With `COc1cc(Br)c(Nc2nc(-c3c(C)nc4ncccn34)cs2)c(Br)c1`, the “cellular ATP (log10)” value was -0.929 ± 0.84.
Under `CN[C@@H](C)C(=O)N[C@H](C(=O)N1CCC[C@H]1C(=O)Nc1snnc1-c1ccccc1)C1CCCCC1` stands 0.241 ± 0.21.
As for `O=C1CC(=O)c2c(Cl)c(Cl)c(Cl)c(Cl)c21`, the “cellular ATP (log10)” value is -0.139 ± 0.27.
Regarding `COc1cc2c(cc1Cc1cccc(Cl)c1F)c(=O)c(C(=O)O)cn2[C@H](CO)C(C)C` [Elvitegravir (GS-9137, JTK-303)], the “cellular ATP (log10)” value is -0.737 ± 0.68.
On to `O=[N+]([O-])c1ccc2c(c1)S(=O)(=O)C=C2` [Stattic], for which the “cellular ATP (log10)” value came out at 0.00159 ± 0.28.
Turning to `CC(C)(C)c1cc(/C=C(\C#N)C(N)=S)cc(C(C)(C)C)c1O` [Tyrphostin AG 879], the “cellular ATP (log10)” value is -0.331 ± 0.44.
The result for `CN1CCC[C@@H]1CCO[C@](C)(c1ccccc1)c1ccc(Cl)cc1` [Clemastine Fumarate] reads -0.424 ± 0.34; that for `NC(=O)c1ncn([C@@H]2O[C@H](CO)[C@@H](O)[C@H]2O)c1N` [Acadesine], 0.0761 ± 0.085; that for `O=C(O)Cc1cccc(OCCCN(Cc2cccc(C(F)(F)F)c2Cl)CC(c2ccccc2)c2ccccc2)c1`, -0.0777 ± 0.2.
As for `CNC(=C[N+](=O)[O-])NCCSCc1ccc(CN(C)C)o1` [Ranitidine], the “cellular ATP (log10)” value is -0.312 ± 0.25.
`O=C(NOC[C@H](O)CO)c1ccc(F)c(F)c1Nc1ccc(I)cc1F`: the “cellular ATP (log10)” value is -0.963 ± 0.86.
With `COc1ccc2cccc(CCNC(C)=O)c2c1` [Agomelatine], the “cellular ATP (log10)” value worked out at 0.0236 ± 0.012.
For the compound `CNC(=O)c1cc(Oc2ccc(NC(=O)Nc3cc(C(C)(C)C)nn3-c3ccc4ncccc4c3)c(F)c2)ccn1` [DCC-2036 (Rebastinib)], the “cellular ATP (log10)” value was -0.322 ± 0.27.
The result for `CCN(CC)CC(=O)Nc1c(C)cccc1C` [Lidocaine] reads -0.256 ± 0.089.
